# Out of some 48,000 compounds screened, about 120 (0.25%) were called active. Not shown: some 4% with an inconclusive outcome. The call rests on the fitted dose curve; in most records, active means well fitted activation curve with a large enough effect; inconclusive means small, poorly fitted or top-dose-only effect, or another doubt; inactive means no such curve, though single readings can be large or run the other way. This is one part of the list.
# Test: Primary qHTS for Identification of Small Molecule Activators of Huntingtin-Antisense Promoter Activity; further: nearly all actives have a fitted effect of over 55% in size
# Conditions: HEK293 HTT-AS promoter firefly luciferase reporter, 24 h; series mostly up to 57.5 µM; activity change, positive = activation: at the top concentration
# Outline: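 HEK293 cells carrying firefly luciferase reporters were seeded at 2,500 per well in Opti-MEM and cultured for 24 h. They were then treated with compounds at up to 57.5 uM final for 24 h at 37 degrees C before Dual-Glo luminescence readout.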
row,SMILES,"activity change, positive = activation"
1,COc1ccc(C2C=C(c3ccccc3)Nc3nc(NS(=O)(=O)c4ccc(C)cc4)nn32)cc1 (stereo unspecified),inactive: -12.7%
2,Cc1c(C(=O)OC2CCCCC2)[nH]c2c1C(=O)CC(c1ccccc1)C2 (stereo unspecified),inactive: -23.4%
3,Cc1ccc(OCC(=O)N(Cc2ccc(Cl)cc2)CC2CCCO2)cc1C (stereo unspecified),inactive: -28.1%
4,Cc1cc(F)ccc1NC(=O)C(C(C)C)N1Cc2ccccc2C1=O (stereo unspecified),inactive: 1.8%
5,COc1ccccc1NC(=O)c1nnn(-c2ccc(F)cc2)c1C,inactive: -3.12%
6,COc1ccc(CNC(=O)c2ccc3c(c2)N(Cc2ccccc2)C(=O)c2ccccc2S3=O)cc1 (stereo unspecified),inactive: -15.5%
7,CC(=O)Nc1ccc(S(=O)(=O)NC2=NCN(C(C)C)CN2)cc1,inactive: -13.9%
8,COc1ccc(C(=O)N2CC(=O)Nc3ccc(C)cc3C2c2ccc(F)cc2)c(OC)c1 (stereo unspecified),inactive: -12.2%
9,CN(CC(=O)NCc1ccccc1Cl)S(=O)(=O)c1ccc2c(c1)c(=O)n(C)c(=O)n2C,inactive: -16.1%
10,Cc1ccc(Cl)cc1N1CCN(C(=O)Cc2c(C(=O)O)c(C)cn2C)CC1,inactive: -17.1%
11,Cc1sc2ncn(CC(=O)N3CCN(c4ccccc4F)CC3)c(=O)c2c1S(=O)(=O)N1CCN(c2ncccn2)CC1,inactive: -10.2%
12,O=c1c(-c2cc(-c3ccc(Cl)cc3)nc3c2COc2ccccc2-3)coc2ccccc12,inactive: 0.961%
13,CCC(=O)N1CCc2cc(Br)cc(S(=O)(=O)CCC(=O)NCCc3ccc(C)cc3)c21,inactive: -10%
14,CCOc1ccc(C(=O)N2CCC(c3nc(-c4ccc(S(=O)(=O)N5CCCC5)cc4)no3)CC2)cc1,inactive: -24.4%
15,c1ccc(CSc2nnc(C3CCNCC3)o2)cc1,inactive: -1.48%
16,COC(=O)c1ccc(NC(=O)CCn2cccn2)cc1,inactive: 14.4%
17,O=c1[nH]c2ccc(NCc3ccc(-c4ccccc4F)o3)cc2[nH]1,inactive: -60.1%
18,CCOc1ccc(Cc2nccc3cc(OCC)c(OCC)cc23)cc1OCC,inactive: -52.8%
19,Cc1ccc(C(C)C)c(OCC(=O)Nc2cccc(-c3nc4ncccc4o3)c2)c1,inactive: -27.9%
20,CCOc1ccc(NC(=O)N(Cc2ccc(CC)cc2)Cc2cn[nH]c2-c2ccc(OC)cc2)cc1,inactive: -20.1%
21,CCOc1ccc(-c2cc3c(=O)n(Cc4nc(-c5ccc(OC)cc5OC)oc4C)ccn3n2)cc1Cl,inactive: 24.9%
22,COc1cccc(Oc2nc3c(c(=O)n(Cc4ccccc4Cl)c(=O)n3C)n2C)c1,inactive: 0.327%
23,CCOc1ccc(C(=O)c2cn(CC(=O)Nc3cc(OC)ccc3OC)c3cc(OC)c(OC)cc3c2=O)cc1,inactive: -19.3%
24,COc1ccc(-c2ccc(=O)n(CC(=O)NCCc3ccccc3)n2)cc1,inactive: -8.99%

row,SMILES,"activity change, positive = activation"
1,O=C(O)c1cccnc1,inactive
2,CCc1ccc(OCCSc2nc(-c3cccc(C)c3)nc3cc(=O)[nH]n23)cc1,inactive: 11.6%
3,COc1ccc(NC(=O)CCSc2nc(-c3ccco3)cc(C(F)(F)F)n2)cc1OC,"inactive: 4.63% [at 11.5 µM, percent change from vehicle, -100% = no light]"
4,O=C(CN1C(=O)C2(SCC(=O)N2c2ccc(F)cc2)c2ccccc21)NCCc1ccccc1 (stereo unspecified),inactive: -14.7%
5,COc1ccc(NCc2nnc3n2CCCCC3)c(OC)c1,inactive: -16.8%
6,Cc1cc(C)cc(Nc2cc(C(=O)NCc3ccccc3)c3ccccc3n2)c1,inactive: -16.8%
7,CCOc1cc(CNCCSc2nnnn2-c2ccccc2)ccc1OC,inactive: -11.8%
8,CCOC(=O)C1CCN(C(c2ccc(F)cc2)c2sc3nc(-c4ccco4)nn3c2O)CC1 (stereo unspecified),inactive: -6.65%
9,Cc1cc(C)c(NC(=O)C(C)n2nnc3sc(-c4ccccc4)cc3c2=O)c(C)c1 (stereo unspecified),inactive: 7.43%
10,CNC(=O)C1CCC(Cn2c(=O)c3sccc3n(CC(=O)Nc3cc(F)ccc3F)c2=O)CC1 (stereo unspecified),inactive: -18%
11,CC(=O)Nc1cccc(NC(=O)CSc2cn(CC(=O)N3CCCCCC3)c3ccccc23)c1,inactive: -24.4%
12,CCOC(=O)c1cccc(NC(=O)N2CCC(CN3CCCCCC3)CC2)c1,inactive: -1.9%
13,O=C(Nc1ccc2oc(-c3cccc(Cl)c3Cl)nc2c1)c1cccc(Br)c1,inactive: -38.9%
14,O=C(c1cn(CCOc2ccc(Cl)cc2)c2ccccc12)C1CCCCC1,inactive: -27.9%
15,COc1cn(CC(=O)Nc2cc(C)ccc2C)c(CN2CCCCC2)cc1=O,inactive: -15.5%
16,O=[N+]([O-])c1cc(-c2nc(-c3ccncc3)no2)ccc1NCc1ccccc1,inactive: 5.65%
17,COc1ccccc1NC(=O)C1=C(C)Nc2nc(SCc3ccccc3Cl)nn2C1c1ccncc1 (stereo unspecified),inactive: -14.5%
18,CC(=O)c1c(C)oc2ccc(N(C(=O)c3ccncc3)S(=O)(=O)c3ccc(C)cc3C)cc12,inactive: -44.7%
19,CCN(CC)S(=O)(=O)c1ccc(C(=O)NCCSc2c(-c3ccc(OC)cc3)[nH]c3ccccc23)cc1,inactive: -30.3%
20,COc1cccc(NC(=O)c2ccc(-c3nc(COc4ccc(C)cc4)c(C)o3)cc2)c1,inactive: -17.8%
21,Cc1ccc2c(c1)c1c(c(=O)n(-c3ccccc3C)c(=O)n1CC(=O)NCC1CCCO1)n2C (stereo unspecified),inactive: -11%
22,Cc1cc(=O)n2nc(N3CCC(C(=O)Nc4ccc(Br)cc4F)CC3)sc2n1,inactive: -14.4%
23,Cc1ccc(C)c(NC(=O)CCCN2C(=O)C(c3ccccc3)Oc3cccnc32)c1 (stereo unspecified),inactive: -26.9%
24,CC(C)(C)c1nnc(NS(=O)(=O)c2ccccc2)s1,inactive: -6.44%

row,SMILES,"activity change, positive = activation"
1,OC[C@H]1OC(O)C[C@@H](O)[C@H]1O (stereo partly specified),inactive: -0.868%
2,O=C(CNC(=O)c1ccc(Cl)cc1)OCc1cc(=O)n2nc(C3CCCCC3)sc2n1,inactive: -12%
3,CCOC(=O)c1cccc(NC(=O)c2cc3cc4ccc(C)cc4nc3s2)c1,inactive: 5.33%
4,CSc1ccc(CCNC(=O)c2cc3c(-c4ccccc4F)nn(C)c3s2)cc1,inactive: -19.9%
5,Nc1c(C(=O)NCc2ccccc2)nnn1Cc1cccc(Br)c1,inactive: -42.9%
6,Cc1cccc(NC(=O)Cn2c(=O)n(CCC(=O)N3CCc4ccccc4C3)c(=O)c3ccccc32)c1,inactive: -17.5%
7,CCCCc1oc2ccccc2c1C(=O)c1cc(I)c(OCCN(CC)CC)c(I)c1,inactive
8,CCOC(=O)c1cc(-c2ccc(F)cc2)n(CCC(=O)NC2CCCCC2)c1C,inactive: -29.5%
9,Cc1cc(C)cc(Nc2nc3c(S(=O)(=O)c4cccc(Cl)c4)nnn3c3ccsc23)c1,inactive: -5.2%
10,CC(=O)Nc1ccc(C(=O)CSc2nnc3ccc4ccccc4n23)cc1,inactive: -2.26%
11,CCOC(=O)c1cc2c(=O)n3ccccc3nc2n(C)c1=NC(=O)c1cc2ccccc2o1,inactive: -2.12%
12,CCOc1ccc(NC(=O)NCCN2CCN(c3ccccc3F)CC2)cc1,inactive: -8.98%
13,O=S(=O)(NCc1ccc(Cl)cc1)c1ccc(N2CCCCS2(=O)=O)cc1,inactive: -37.7%
14,CCCCN(CCN(CCCC)C(=O)N1CCOCC1)C(=O)N1CCOCC1,inactive: -6.19%
15,CN1CCN(c2ccc3nc(-c4c(N)c5c(F)cccc5[nH]c4=O)[nH]c3c2)CC1,inactive: 24.9%
16,COc1cccc2sc(N3CCN(C(=O)CCS(=O)(=O)c4ccc(F)cc4)CC3)nc12,inactive: -37.9%
17,Cc1ccc(CNC(=O)C(=O)NCC(c2cccnc2)N2CCN(c3ccccc3F)CC2)cc1 (stereo unspecified),inactive: -48.2%
18,Cc1ccsc1CN(C(=O)c1oc2ccccc2c1C)C1CCS(=O)(=O)C1 (stereo unspecified),inactive: -31.3%
19,Cc1oc2ncn(C)c(=O)c2c1C(=O)NCCCN(Cc1ccccc1)C(C)C,inactive: -4.27%
20,CCn1c(=O)c2sccc2n2c(CCC(=O)Nc3ccc(OC)c(Cl)c3)nnc12,inactive: -9.21%
21,CCc1ccc(C2NC(=O)c3[nH]nc(-c4cccc(OC)c4)c32)cc1 (stereo unspecified),inactive: -24.4%
22,CC(C)Oc1ccc(CNC(=O)C2CCN(c3nc4ccccc4n(C)c3=O)CC2)cc1,inactive: -8.95%
23,COc1ccccc1CC(=O)Nc1ccc2nc(N3CCC(C)CC3)cc(C)c2c1,inactive: -6.94%
24,Cc1ccc(C)c(Cn2c3ccccc3c3cnn(CC(=O)NC(C)c4ccccc4)c(=O)c32)c1 (stereo unspecified),inactive: -5.16%

row,SMILES,"activity change, positive = activation"
1,COc1ccc(S(=O)(=O)N(CC(=O)Nc2cccnc2)c2ccc(C)cc2)cc1OC,inactive: 0.545%
2,COc1cc2c(=O)n(CCC(=O)NCC3CCCO3)c(=O)n(CC(=O)Nc3ccc(F)cc3)c2cc1OC (stereo unspecified),inactive: -9.14%
3,Cc1ccc(O)c(NC(=O)CCS(=O)(=O)c2nc(-c3ccc4c(c3)OCO4)cc(C(F)(F)F)n2)c1,inactive: 17.1%
4,C=C1C(=O)O[C@H]2[C@@H]1CCC(C)=CCC[C@@]1(C)O[C@@H]21,inactive: -61%
5,O=c1[nH]c(=O)n([C@H]2C[C@H](O)[C@@H](CO)O2)cc1I,inactive: 5.65%
6,CCc1ccc(CNC(=O)CCn2c(=O)c3cccn3c3ccc(F)cc32)cc1,inactive: -17.1%
7,CCOc1ccccc1CNC(=O)c1cc(-c2ccc(C)c(C)c2)nc2ccccc12,inactive: 23%
8,CCOc1ccccc1NC(=O)COc1ccc(S(=O)(=O)NC2CCCCC2)cc1,inactive: -32.3%
9,CCn1c(CN2CCCCC2)nc2cc(NC(=O)c3ccc([N+](=O)[O-])cc3)ccc21,inactive: -28.4%
10,O=C(Nc1ccc(F)c(F)c1)C1CCCN1S(=O)(=O)c1cccc2nsnc12 (stereo unspecified),inactive: -15.9%
11,CCc1ccc(NC(=O)CSc2nc3ncccc3[nH]2)cc1,inactive: 0.932%
12,O=S(=O)(c1ccccc1)c1nc(-c2ccc(F)cc2)oc1N1CCCCCC1,inactive: -23.4%
13,Cc1cccc(N(C)C(=S)Oc2ccc3ccccc3c2)c1,inactive
14,CCOc1ccc(/C=C/C(=O)Nc2sc3c(c2C(=O)OC)CCC3)cc1,inactive: -18.4%
15,CCOC(=O)c1ccc(-c2ccc(/C=C(\C#N)C(=O)Nc3ccc(C)cc3OC)o2)cc1,inactive: -0.0736%
16,CCCNC(=O)CN1CCN(c2ncc(NC(=O)c3ccc(Cl)cc3)cc2C(=O)O)CC1,inactive: 17.1%
17,N[C@@H](COP(=O)(O)O)C(=O)O,"inactive: -8.77% [at 25.1 µM, percent change from vehicle, -100% = no light]"
18,CCCCN1C(=O)C(O)(c2c(C)[nH]c3ccccc23)c2ccccc21 (stereo unspecified),inactive: -24.6%
19,CCCOc1ccccc1C1Oc2nc(SC)nnc2-c2ccccc2N1C(C)=O (stereo unspecified),inactive: -26%
20,COCCNC(=O)Cn1ncc2c(C)n(Cc3ccc(C)cc3)c(C)c2c1=O,inactive: -14.7%
21,Cc1ccc(C)c(CNC(=O)c2cnc3sc(N4CCCC4)nn3c2=O)c1,inactive: -15.1%
22,CCOc1ccc(C(=O)c2cn(Cc3ccc(F)cc3)c3ccc(F)cc3c2=O)cc1,inactive: -29.3%
23,Cc1ccc(CN(Cc2ccco2)C(=O)c2oc3ccc(C)cc3c2C)cc1,inactive: -23.2%
24,Cc1cccc(-n2ncc3c(N4CCCCCC4)ncnc32)c1,inactive: -55.2%
